Experimental data taken from article PMC4336329 (PLoS ONE, 2015).
Out of some 310,000 compounds screened, about 2,200 (0.71%) showed an effect of 50% or more. Effects have a minus sign here. Some of the results follow.

target: human ether-à-go-go-related gene (hERG) potassium channel (human, UniProt Q12809); assay: primary screen, population patch clamp on CHO cells stably expressing hERG
Sequence (Q12809 whole entry, looked up): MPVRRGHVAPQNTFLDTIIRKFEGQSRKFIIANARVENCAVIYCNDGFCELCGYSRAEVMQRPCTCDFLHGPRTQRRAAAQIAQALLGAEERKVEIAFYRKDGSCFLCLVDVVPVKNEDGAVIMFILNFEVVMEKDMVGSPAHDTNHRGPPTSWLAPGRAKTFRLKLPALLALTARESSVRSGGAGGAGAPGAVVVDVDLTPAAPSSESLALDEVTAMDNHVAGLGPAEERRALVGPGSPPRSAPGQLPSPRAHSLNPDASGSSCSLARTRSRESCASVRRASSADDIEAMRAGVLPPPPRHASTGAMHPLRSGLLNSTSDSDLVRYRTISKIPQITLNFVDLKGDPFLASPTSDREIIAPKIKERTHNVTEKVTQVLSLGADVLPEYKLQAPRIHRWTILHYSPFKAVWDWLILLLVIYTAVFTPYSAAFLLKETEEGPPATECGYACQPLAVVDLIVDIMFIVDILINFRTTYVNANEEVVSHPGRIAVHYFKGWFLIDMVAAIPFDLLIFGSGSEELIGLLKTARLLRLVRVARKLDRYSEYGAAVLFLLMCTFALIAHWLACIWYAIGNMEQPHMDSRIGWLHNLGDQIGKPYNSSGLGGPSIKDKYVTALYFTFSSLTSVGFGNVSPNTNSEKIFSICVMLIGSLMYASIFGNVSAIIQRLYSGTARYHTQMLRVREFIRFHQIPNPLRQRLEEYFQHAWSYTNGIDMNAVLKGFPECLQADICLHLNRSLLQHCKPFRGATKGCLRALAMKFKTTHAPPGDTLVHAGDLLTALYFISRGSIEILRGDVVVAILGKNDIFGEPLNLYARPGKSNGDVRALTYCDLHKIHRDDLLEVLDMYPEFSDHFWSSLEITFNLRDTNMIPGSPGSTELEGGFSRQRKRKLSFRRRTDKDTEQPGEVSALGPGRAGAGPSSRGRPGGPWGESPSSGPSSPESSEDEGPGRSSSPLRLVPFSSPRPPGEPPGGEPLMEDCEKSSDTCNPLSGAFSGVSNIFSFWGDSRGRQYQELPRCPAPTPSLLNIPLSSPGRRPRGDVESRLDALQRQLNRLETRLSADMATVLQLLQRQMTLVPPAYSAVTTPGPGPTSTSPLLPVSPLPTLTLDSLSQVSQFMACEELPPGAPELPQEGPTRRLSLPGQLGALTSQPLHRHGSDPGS

Row | SMILES | hERG current change (%, negative = inhibition) at 1uM
1 | O=C(CSc1nnnn1-c1ccccc1)NC1CCCc2ccccc21 (stereo not drawn) | 7.23%
2 | COCCNC(=O)c1cc(-c2ccccc2OC)on1 | 3.78%
3 | CCc1nnc(NC(=O)CSc2ccc(-c3ccccc3OC)nn2)s1 | 0.444%
4 | CO/N=C/c1ccc(N2CCN(C(=O)c3ccc(F)cc3)CC2)c([N+](=O)[O-])c1 | -78.1%
5 | CCOc1c(Br)cc(CNCc2cccs2)cc1OC.Cl | 4.69%
6 | CCC(=O)N1CCN(c2ccc(Cl)cc2NC(=O)Cc2ccccc2)CC1 | -3.75%
7 | COC(=O)C(CCCCNC(=O)c1ccc([N+](=O)[O-])cc1)NC(=O)c1ccc([N+](=O)[O-])cc1 (stereo not drawn) | -84.2%
8 | CCOc1cc(NC(=O)C2CC2)c(OCC)cc1NC(=O)c1ccccn1 | -2.84%
9 | CC1=C(C(=O)OCc2ccccc2)C(c2ccccc2Cl)NC(=O)N1CCCC(=O)O (stereo not drawn) | 12%
10 | CCOc1ccc(Cn2c(=O)oc3ccc(C)cc32)cc1OC | 17.4%
11 | Cc1cc(C)c(N=C2CCCN2Cc2ccccc2)c(C#N)c1 | 15.5%
12 | COc1cccc(-c2noc(-c3ccc(Cl)nc3)n2)c1 | 13.7%
13 | CC(C)CCCN1C(N(C)C)=NC[C@@H]1C | 1.68%
14 | CN(C(=O)C1CCC(=O)N(CCc2ccc(Cl)cc2)C1)C1CCOCC1 (stereo not drawn) | 17.5%
15 | CC(Oc1ccc2c(-c3ccccc3)cc(=O)oc2c1)C(=O)NCC(O)c1ccccc1 (stereo not drawn) | 14.8%
16 | CC1=C(C(=O)OCc2ccccc2)C(c2ccc(C)o2)C2=C(CCCC2=O)N1 (stereo not drawn) | 13.9%
17 | COc1ccc(C(=O)CC(=O)C(=O)Nc2ccccc2Cl)cc1 | 9.4%
18 | COc1ccc(N2CC(C(=O)N3CCN(C(=O)c4ccco4)CC3)CC2=O)cc1 (stereo not drawn) | -8.81%
19 | Cc1ccc(C)c(C(=O)Cn2ncc(Cl)c(Cl)c2=O)c1 | 11.9%
20 | CC(NC(=O)c1ccc(NC(=O)CC2SC(N3CCCC3)=NC2=O)cc1)c1ccc(S(N)(=O)=O)cc1 (stereo not drawn) | 16.5%
21 | COc1ccc(/C=C/C(=O)Nc2cc(F)ccc2C)cc1S(=O)(=O)N1CCOCC1 | 6.23%
22 | COC(=O)c1ccccc1NS(=O)(=O)c1ccc(O)c(C(=O)O)c1 | -1.03%
23 | CC1OC(Oc2ccc3ccc(=O)oc3c2-c2c(O)ccc3cc(Oc4ccc5ccc(=O)oc5c4)c(=O)oc23)C(O)C(O)C1O (stereo not drawn) | 7.79%
24 | CC(=O)Nc1cc(NC(C)=O)c(CC(C)C)s1 | 13.9%
25 | CC(CNC(=O)CCS(=O)(=O)c1cc2c(cc1Cl)NC(=O)CO2)c1ccccc1 (stereo not drawn) | 6.9%
26 | COc1ccc(C(=O)COC(=O)C(CCSC)NC(=O)COc2ccccc2)cc1 (stereo not drawn) | -2.6%
27 | Cc1sc2nc(CSc3n[nH]c(N)n3)[nH]c(=O)c2c1C | 6.27%

Row | SMILES | hERG current change (%, negative = inhibition) at 1uM
28 | O=C(COc1ccc([N+](=O)[O-])cc1)Nn1cnnc1 | 19.3%
29 | Nc1c(-c2ccc(Cl)cc2)cnn1-c1ccccc1 | 13.4%
30 | COc1ccc(NC(=O)CSCC(=O)Nc2sccc2C#N)cc1 | 10.6%
31 | O=C(CC1Nc2ccccc2NC1=O)Nc1ccccc1NC(=O)CC1Nc2ccccc2NC1=O (stereo not drawn) | 7.68%
32 | CCOC(=O)c1ccccc1NC(=O)c1ccc(N(C)S(C)(=O)=O)cc1 | 6.53%
33 | COc1ccc(C(CNC(=O)C(C)Oc2ccc(Br)cc2)N2CCCC2)cc1 (stereo not drawn) | 7.22%
34 | Cc1cccc(OCC(=O)NCCCNC(=O)c2ccco2)c1 | -0.79%
35 | C=CCOc1ccc(/C(O)=C2/C(=O)C(=O)N(CCCn3ccnc3)C2c2ccco2)cc1 (stereo not drawn) | 9.31%
36 | N#Cc1c(-c2ccccc2)cc(C2CC2)nc1SCC(=O)O | 15.3%
37 | CN1CCN(S(=O)(=O)c2ccc(N(C)Cc3cccc(F)c3)nc2)CC1 | -5.53%
38 | c1ccc(CN2c3ccccc3-c3nc4ccccc4n3C2c2ccccn2)cc1 (stereo not drawn) | 2.51%
39 | COc1ccc(OC)c(S(=O)(=O)N2CCCC(C(=O)NCCN3CCOCC3)C2)c1 (stereo not drawn) | 15.8%
40 | CCCCNC(=O)C(CC)Sc1nc2sc(C(=O)OC)c(C)c2c(=O)n1N (stereo not drawn) | -2.28%
41 | O=C(CN1c2cccc3cccc(c23)S1(=O)=O)Nc1cccc(S(=O)(=O)N2CCOCC2)c1 | 13.4%
42 | O=C(/C=C/c1ccc(O)cc1)OCc1occc(=O)c1O[C@@H]1OC(CO)[C@@H](O)[C@H](O)[C@@H]1O (stereo partly drawn) | 12.9%
43 | Cc1ccc(NC(=O)CC(NCCN2CCOCC2)C(=O)O)cc1Cl (stereo not drawn) | 13.1%
44 | CC(=O)CC(c1ccccc1)c1c(O)c2ccccc2oc1=O (stereo not drawn) | 15.1%
45 | CCN(CC)S(=O)(=O)c1cc(NC(=O)CNc2c(C)n(C)n(-c3ccccc3)c2=O)ccc1C | 16.4%
46 | CCCCCCC1(C)NC(=S)N(c2ccccc2)N1 (stereo not drawn) | 12.3%
47 | Cc1nnc(SCCC(=O)Nc2ccc(Cl)cc2)o1 | 22%
48 | O=C(N/N=C/c1ccc2c(c1)OCO2)c1ccc(COc2cccc3cccnc23)cc1 | -6.17%
49 | CN(C)S(=O)(=O)N1CCCC(C(=O)c2ccc(-c3ccccc3)cc2)C1 (stereo not drawn) | 1.29%
50 | CCN(CC)C(=O)c1ccc(NC(=O)c2ccc(-c3nn(C)c(=O)c4ccccc34)cc2)cc1 | 12.1%
51 | CN(C(=O)COC(=O)c1cnc(Cl)c(Cl)c1)C1CCS(=O)(=O)C1 (stereo not drawn) | 8.97%
52 | Cc1cc(C)nc(SCc2nc3nc(C)cc(C)n3c2Br)n1 | -1.33%
53 | Cc1ccc(NC(=O)c2cc([N+](=O)[O-])ccc2NCc2cccnc2)cc1 | -17.3%
54 | C#CC(=O)N(c1ccc(OC)cc1OC)C(C(=O)NC1CCCC1)c1cccs1 (stereo not drawn) | 6.01%
